Patent publication US20230048360A1 (EUREKA THERAPEUTICS, published 2023)

Key:
[1] = target: T1, cell surface-bound human GPC3 on GPC3+ HepG2 cells (human, UniProt P51654 25-560, GPI anchor and heparin sulfate side chains, as the filing describes native GPC3); test: FACS on GPC3+ HepG2 cells, labelled on the sheet GPC3A L2K against control L2K; control L2K median 93.8; axis PE-A
T1 construct: Endogenous GPC3 of the HepG2 line; also called Glypican 3; native GPC3

[2] = target: T1, cell surface-bound human GPC3 on GPC3+ …; test: FACS on GPC3+ HepG2 cells, L2K pre-mixed with or without soluble bt-GPC3(560), APC anti-His; soluble GPC3 concentration not shown on the sheet
[3] = target: T2, biotinylated GPC3-51mer fragment (human, biotinylated (site not stated)); test: phage ELISA on biotinylated GPC3-51mer
T2 construct: Synthesized by Elim Biopharmaceuticals; also called bt-GPC3-51mer; hGPC3-51mer fragment
T2 peptide: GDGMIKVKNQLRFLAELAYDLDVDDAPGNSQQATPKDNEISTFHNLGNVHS

Binder	binding result [2]	other results
#56 GPC3A L2K (bispecific antibody, also called GPC3A-56 L2K; GPC3-56 L2K) tandem di-scFv: [sequence of about 100 residues omitted]RSRGGGGSGGGGSGGGGSLEMAQVQLQQSGAEVKKFGASVKVSCKASGYSFNDYYIHWVRQAPGQGLEWMGWINPNNGDTKYEKKWQGRVTMTRDTSITTAYMELSSLRSDDTAVYYCARFSTHNWWWPTYDYWGQGTLVTVSSTSGGGGSDVQLVQSGAEVKKPGASVKVSCKASGYTFTRYTMHWVRQAPGQGLEWIGYINPSRGYTNYADSVKGRFTITTDKSTSTAYMELSSLRSEDTATYYCARYYDDHYCLDYWGQGTTVTVSSGEGTSTGSGGSGGSGGADDIVLTQSPATLSLSPGERATLSCRASQSVSYMNWYQQKPGKAPKRWIYDTSKVASGVPARFSGSGSGTDYSLTINSLEAEDAATYYCQQWSSNPLTFGGGTKVEIKHHHHHH		Median : PE-A [1]: 5630
GPC3-41 L2K (bispecific antibody, also called GPC3A-41 L2K) tandem di-scFv: QAVLTQPPSASQTPGQMVTISCSGTSSNIGSNYVFWYQQLPGTAPKLLIYKNFQRPSGVPGRFSGSKSGTAASLAISGLRSEDEADYFCAAWDDALSGYVFGAGTKVTVLGSRGGGGSGGGGSGGGGSLEMA[sequence of about 100 residues omitted]SGKYYGDKWGQGTLVTVSSTSGGGGSDVQLVQSGAEVKKPGASVKVSCKASGYTFTRYTMHWVRQAPGQGLEWIGYINPSRGYTNYADSVKGRFTITTDKSTSTAYMELSSLRSEDTATYYCARYYDDHYCLDYWGQGTTVTVSSGEGTSTGSGGSGGSGGADDIVLTQSPATLSLSPGERATLSCRASQSVSYMNWYQQKPGKAPKRWIYDTSKVASGVPARFSGSGSGTDYSLTINSLEAEDAATYYCQQWSSNPLTFGGGTKVEIKHHHHHH	binds	
GPC3-49 L2K (bispecific antibody, also called GPC3A-49 L2K) tandem di-scFv: QAVLTQPSSASGTPGQRVTISCSGGSSNIGSNYVYWYQQLPGTAPKLLIYRNNQRPSGVPDRFSGSKSGTSASLAISGLRSEDEADYYCAAWDDSLSGWVFGGRTKLTVLGSRGGGGSGGGGSGGGGSLEMA[sequence of about 100 residues omitted]HGGIGSMRSFDQWGQGTLVTVSSTSGGGGSDVQLVQSGAEVKKPGASVKVSCKASGYTFTRYTMHWVRQAPGQGLEWIGYINPSRGYTNYADSVKGRFTITTDKSTSTAYMELSSLRSEDTATYYCARYYDDHYCLDYWGQGTTVTVSSGEGTSTGSGGSGGSGGADDIVLTQSPATLSLSPGERATLSCRASQSVSYMNWYQQKPGKAPKRWIYDTSKVASGVPARFSGSGSGTDYSLTINSLEAEDAATYYCQQWSSNPLTFGGGTKVEIKHHHHHH	binds	
GPC3A-47 phage clone (scFv, also called GPC3A-047) scFv: LPVLTQPPSASGTPGQRVTISCSGSRSNIASNDVYWYQQLPGTAPKRLIYKKNQRPSGVPDRFSASKSGTSASLAISGLRSEDEADYYCAAWDDNLSGYVFGTGTKVTVLGSRGGGGSGGGGSGGGGSLEMA[sequence of about 100 residues omitted]SDYGSLYDKWGQGTLVTVSS		binding result [3]: no binding
